The record followed here is article PMC6919601, “Identification of Plasmodium dipeptidyl aminopeptidase allosteric inhibitors by high throughput screening” (PLoS ONE, 2019).

The whole screen tested about 110,000 compounds, of which about 230 (0.21%) showed an effect of 50% or more. This is one part of the list.
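Also: 30 min substrate incubation versus DMSO and 10 µM JCP410 controls.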

DPAP1, sequence (Q8IIJ9 whole entry, looked up): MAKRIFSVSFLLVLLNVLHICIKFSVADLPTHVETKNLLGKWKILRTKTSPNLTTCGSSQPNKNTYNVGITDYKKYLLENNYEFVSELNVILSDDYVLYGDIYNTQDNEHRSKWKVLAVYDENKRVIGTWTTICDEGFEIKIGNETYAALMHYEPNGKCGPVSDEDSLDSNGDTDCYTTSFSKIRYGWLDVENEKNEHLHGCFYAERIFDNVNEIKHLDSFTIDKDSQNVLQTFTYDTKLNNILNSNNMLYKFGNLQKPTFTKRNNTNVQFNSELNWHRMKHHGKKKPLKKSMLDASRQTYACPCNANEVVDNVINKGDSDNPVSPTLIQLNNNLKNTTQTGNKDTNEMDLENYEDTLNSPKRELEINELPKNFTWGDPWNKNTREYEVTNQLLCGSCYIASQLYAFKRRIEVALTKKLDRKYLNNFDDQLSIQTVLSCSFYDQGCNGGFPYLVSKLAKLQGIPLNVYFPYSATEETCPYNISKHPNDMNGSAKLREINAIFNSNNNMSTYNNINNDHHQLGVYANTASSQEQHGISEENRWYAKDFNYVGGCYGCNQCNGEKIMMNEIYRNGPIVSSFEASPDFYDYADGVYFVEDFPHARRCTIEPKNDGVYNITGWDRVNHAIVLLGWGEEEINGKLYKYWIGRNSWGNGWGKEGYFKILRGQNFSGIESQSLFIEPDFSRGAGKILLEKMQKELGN

The test has as its target DPAP1 (Plasmodium falciparum, UniProt Q8IIJ9). Nature of the test: primary screen, percent inhibition; read by cleavage of a fluorogenic dipeptide substrate; higher = more effect of the substance. Further details: species or system P. falciparum D10 trophozoite lysates; single well.
Regarding `O=C1CSC(c2ccc(Cl)c(Cl)c2)N1CC12CC3CC(CC(C3)C1)C2` (stereo not shown), the “% Inhibition @ 10 uM” value was -0.415%. Take `CN(C)CCNC(=O)CSCc1cnn(-c2ccccc2)c1-n1cccc1`: the “% Inhibition @ 10 uM” value was 32.6%. Consider `COc1ccc(C2(C(=O)Nc3cccc(C(F)(F)F)c3)CCOCC2)cc1OC`, for which the “% Inhibition @ 10 uM” value is listed as 2.43%. Regarding `CC(C)C[C@H](NC(=O)OCc1ccccc1)C(=O)N[C@H](C#N)CC(=O)OC(C)(C)C`, the “% Inhibition @ 10 uM” value is recorded as 1.71%. The value for `CCOC(=O)C1CCN(C/C=C/c2ccccc2)CC1` was -1.78%; that for `O=C(c1csc2c1CCCCC2)N1CCN(c2ncccn2)CC1` was -1.44%. As to `Cc1ccc(C(=O)N2C3=C(CCCC3)C(=O)NC23CCCCC3)cc1`, the “% Inhibition @ 10 uM” value is recorded as -3.34%. To `CCC(=O)N1C(C(=O)NCc2ccccc2F)CSC12CCN(C)CC2` (stereo not shown) belongs 4.81%. Consider `O=C(O)c1[nH]c2ccccc2c1S(=O)c1ccc(Cl)cc1` (stereo not shown), for which the “% Inhibition @ 10 uM” value is listed as 3.24%. `Cc1csc(NC(=O)c2sc3nc(C)c4c(c3c2N)CCCC4)n1`: the “% Inhibition @ 10 uM” value was 0.795%. Turning to `CCOc1ccc(CN2c3cccc4cccc(c34)S2(=O)=O)cc1OCC`, the “% Inhibition @ 10 uM” value is reported as -3.72%. On to `CS(=O)(=O)N1CCC(C(=O)Nc2ccc(Oc3ccccc3)cc2)CC1`, for which the “% Inhibition @ 10 uM” value is given as -0.622%. The value for `CC(C)C[C@H](NC(=O)OCc1ccccc1)C(=O)N[C@H](C#N)COC(=O)Nc1ccccc1` was -1.41%. To `COc1ccc(C2=NOC(Cn3c(Cc4ccc(Cl)cc4)nc4c3c(=O)n(C)c(=O)n4C)C2)cc1` (stereo not shown) belongs 1.91%. To `COC(=O)c1ccc(C2Oc3ccc(C)cc3C3=C2C(c2ccccc2)n2ncnc2N3)cc1` (stereo not shown) belongs -5.19%; to `O=C(/C=C/c1ccccc1O)c1ccccc1`, -6.2%; to `COc1ccc(CNc2ccc3c(c2)OCO3)cc1C`, 0.00588%. Consider `O=C(Cn1cnc2c(nnn2Cc2ccc(F)cc2)c1=O)NC1CCCC1`, for which the “% Inhibition @ 10 uM” value was -2.16%. Regarding `COc1cccc(CNCc2ccc(F)cc2)c1OC`, the “% Inhibition @ 10 uM” value is reported as -4.16%. Turning to `O=C(NCc1ccc2c(c1)OCO2)C1CCCN(S(=O)(=O)c2ccc(Br)s2)C1` (stereo not shown), the “% Inhibition @ 10 uM” value was -2.56%.

Take `CC(C)C(=O)Nc1nnc(S(=O)(=O)N(C)Cc2ccc(Cl)cc2)s1`: the “% Inhibition @ 10 uM” value is -5.9%.

Regarding `CC(C)N(C(=O)C(CC1CCCCC1)C(=O)NCC#N)C(C)C` (stereo not shown), the “% Inhibition @ 10 uM” value is -1.83%.

For the compound `Cc1ccsc1-c1nc(CSCC(=O)NC(C)c2ccccc2)c(C)o1` (stereo not shown), the “% Inhibition @ 10 uM” value was 5.56%. As to `Cc1ccc(/C=C(\C#N)C(N)=S)o1`, the “% Inhibition @ 10 uM” value came to 79.5%. Consider `COc1ccc(S(=O)(=O)N(CC(=O)NC2CCCCC2)c2cccc(Cl)c2)cc1`, for which the “% Inhibition @ 10 uM” value was -1.27%. Take `COc1ccc(C2=NN(CC(=O)NCCc3ccc(C)cc3)C(=O)CC2)cc1`: the “% Inhibition @ 10 uM” value came to 3.24%. On to `O=C(CSc1nc2ccccc2[nH]1)NC1CCCC1`, for which the “% Inhibition @ 10 uM” value is reported as -4.3%. Turning to `COc1ccccc1C1CC(=O)Nc2c1ccc1ccccc21` (stereo not shown), the “% Inhibition @ 10 uM” value was found to be 6.24%. `COc1cc(O)ccc1C1Nc2ccccc2-c2cc(C)nn21` (stereo not shown): the “% Inhibition @ 10 uM” value was -3.71%. For `CCOc1cccc(C(=O)N(Cc2cccs2)C2CCS(=O)(=O)C2)c1` (stereo not shown), the “% Inhibition @ 10 uM” value was 2.1%. To `CC(=O)c1cc(-c2ccccc2)[nH]c1NC(=O)c1ccccc1` belongs -0.736%. Take `COc1ccccc1NC(=O)c1cc(OC)c(OC)c(OC)c1`: the “% Inhibition @ 10 uM” value was -5.67%.

With `Cc1ccc(C(=O)N2CCCN(C(=O)c3ccc(C)cc3)CC2)cc1`, the “% Inhibition @ 10 uM” value was -4.63%. `CC(C)(C)c1cc(CCc2nc3ccccc3[nH]2)cc(C(C)(C)C)c1O`: the “% Inhibition @ 10 uM” value is -9.55%. Regarding `COc1cc(NS(=O)(=O)c2ccc(N3C(=O)c4ccccc4C3=O)cc2)nc(OC)n1`, the “% Inhibition @ 10 uM” value is -1.96%.

As to `CC(=O)c1c(/N=C/N(C)C)nc(C)nc1-c1ccccc1`, the “% Inhibition @ 10 uM” value is listed as 2.01%.

Consider `Cc1ccc(S(=O)(=O)NC(=S)NCc2cccc(Oc3ccccc3)c2)cc1`, for which the “% Inhibition @ 10 uM” value came to 9.01%. Regarding `CC(C)c1cc(C(C)C)c(S(=O)(=O)N2CCCCCC2)c(C(C)C)c1`, the “% Inhibition @ 10 uM” value was determined as 1.48%. To `Cc1ccc2cc(C)c(NCc3cccnc3)nc2c1` belongs -1.37%; to `CCN(CC)CCCN(C)C(=O)c1noc2c1COc1ccccc1-2`, -0.631%. For the compound `CC1=NN(C(=O)Cc2ccc(C)cc2)C(O)(c2cccnc2)C1` (stereo not shown), the “% Inhibition @ 10 uM” value was -1.2%. With `COc1ccc(CCNC(=O)C(=O)Nc2nccs2)cc1OC`, the “% Inhibition @ 10 uM” value stood at 2.09%. The value for `CCn1c(COc2ccc3c(c2)OCO3)nnc1SCC(N)=O` was -1.3%; that for `COc1ccccc1CN1COc2c(Cl)cc3c4c(c(=O)oc3c2C1)CCC4` was 0.895%; that for `CN(CCCNC(=O)Cn1cc2c(n1)CCCC2)C1CCCCC1` was 3.4%. On to `Cc1c(NC(=O)NCCC2=CCCCC2)sc2nc3n(c(=O)c12)CCC(C)CC3` (stereo not shown), for which the “% Inhibition @ 10 uM” value is on record as 3.29%. In the case of `Cc1ccc(C(=O)Nc2ccc(N3CCN(C)CC3)cc2)c(Cl)c1`, the “% Inhibition @ 10 uM” value is reported as -2.6%. The value for `O=C1C(/C(=N\Cc2cccnc2)NCc2cccnc2)=C(O)c2ccccc21` was -0.864%; that for `Cc1[nH]c2ccc(C(=O)NCCCN3CCN(C)CC3)cc2c1C` was -4.33%.
